120 sequences from the supplement of paper PMC10126150 can be followed below.

Values marked as one replicate rest on one cluster of the flow cell; about a third of the high ones do not repeat.

The data set deals with ATP. The data set is described as follows: switch fluorescence ratio, 500 uM ATP over buffer (Cy3 cluster intensity, sum of 5 cycles each) (fold (ratio)); higher = stronger signal-on switching upon ATP binding; sequences stand for … in TCGTCGGCAGCGTCAGATGTGTATAAGAGACAGTTTTTTTTTTTTTTTTTTTTTTTTT…TC. Conditions: aptamer strand: ATP DNA aptamer (quencher-CACCTGGGGGAGTATTGCGGAGGAAGG + anchor), 100 nM annealed; ATP concentration: 500 uM; one replicate. Summed up: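 Per cluster, summed Cy3 intensity from the target cycles was divided by that from the buffer cycles to give the fluorescence ratio, then averaged per switch-domain sequence. Clusters outside 100-1000 RFU were excluded. The Cy3-labelled switching-strand clusters, on a modified Illumina MiSeq flow-cell, were annealed to 100 nM quencher-labelled ATP aptamer and imaged in selection buffer, then after 15 min with 500 uM ATP at 22 °C, for five cycles with NaOH stripping and re-annealing between them.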
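Note: ATP exposure 15 min at 22 °C before imaging.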

With TTAACGCGCC, the switch fluorescence ratio was determined as 1.11. The figure for ATCTTCATGT is 1.02; for TGATAAGTGG it is 1.03. In the case of TATAATTTGT, the switch fluorescence ratio was determined as 1.

Turning to GGCACAAGT, the switch fluorescence ratio was 0.996. Consider GACTGAAGCA, for which the switch fluorescence ratio came out at 1.28. In the case of ATTGCTGATA, the switch fluorescence ratio was found to be 0.988. The value for TTGATGGGGC was 0.937; that for GGTGAGGCTC was 1.01. The value for GGAAAATCGT was 1.03; that for ACGGCATACC was 1.31. For CGGCTGGGTC, the switch fluorescence ratio worked out at 1.01. Consider TGATGTATAG, for which the switch fluorescence ratio was found to be 1.04. For ACAAGGGGAT, the switch fluorescence ratio was found to be 1.01. CCCATCACGC: the switch fluorescence ratio was determined as 1.13.

CTGAAACTTC: the switch fluorescence ratio came to 0.991. The value for ATTATAGCGA was 0.898. The figure for CGAGGACGGA is 1.07; for CGTGTTTCC it is 1.1; for TGTACTGTGA it is 1.03. In the case of GGGGACAGGC, the switch fluorescence ratio came out at 0.984. The value for CCTGGTGATG was 1.17; that for TCAGTCTATA was 1.04; that for TAGCACACCC was 1.52. The value for AACTTGGATC was 1.03; that for TGAATTTAGG was 0.998. Regarding GTGGGGTTT, the switch fluorescence ratio amounted to 1.01.

GAAATGAGGA: the switch fluorescence ratio was 1.06. For the sequence CGAACAAGAG, the switch fluorescence ratio is 1.11. The figure for GGTTGCGAGT is 1; for TAAGCTCGGT it is 0.954. Regarding GTGGTTTATT, the switch fluorescence ratio turned out to be 0.983. The value for TAAAAGAGCT was 1.03; that for TTCGTGTGGG was 0.933. The value for GATGTGACAT was 1; that for TGCGGGTCTT was 0.966. The figure for ACCTCATCA is 1.07; for CAAGTCCATA it is 0.979; for TCGAACGGT it is 0.984. On to GCAGCAGGTA, for which the switch fluorescence ratio was found to be 1.11. The value for GGTGTTCCGT was 0.946. Regarding AATGACTTCC, the switch fluorescence ratio was found to be 2.71. The figure for CTTTAGTGTC is 0.933; for GGATGCGT it is 0.957; for CTTATAACCT it is 1.92. Take ACAGGTACT: the switch fluorescence ratio is 1.12.

As to AGAATAGGTT, the switch fluorescence ratio was determined as 0.985. As for AGTATAGACA, the switch fluorescence ratio worked out at 1.02. The figure for GGCTGGCTTC is 1.04; for AATTTGGATA it is 1.01; for AAGAGAAGGC it is 0.994. The figure for GGTAGTAAAA is 1.06. In the case of GCAATAGTCA, the switch fluorescence ratio was 5.29.

As to GGCGGGCACT, the switch fluorescence ratio came to 0.982.

Regarding GAGGATAGCA, the switch fluorescence ratio is 1.03. The value for ATATCTTGGC was 1.01. Turning to GATCGAGAAT, the switch fluorescence ratio is 0.998. The value for TAGGGCTTTC was 1.01; that for TTGAAGAGGC was 1.07. Consider GGTAGTTATA, for which the switch fluorescence ratio stood at 0.977. The value for ATAACTTCCG was 1.26; that for TACCGGAAGC was 1.09. The value for GTTACTCCTC was 1.06; that for ACTTAACGG was 1.25. The figure for GGCACTGGTG is 1.14; for ATGTGGCAGT it is 1.02. GGGAGGCTTG: the switch fluorescence ratio turned out to be 1.05. The figure for AGATAATGGA is 1.02. Take TTTGATCTGA: the switch fluorescence ratio was determined as 1.03. In the case of TCAAAACAAG, the switch fluorescence ratio came out at 0.986. The value for TATAACGATG was 1.04; that for AATGACAGCT was 0.974. The value for TCTGGTATCG was 0.998; that for GGCTGGGGCC was 1.01; that for TTGAAGGACA was 1.01. Take TTGGTAGAGG: the switch fluorescence ratio turned out to be 0.986. The value for TATACTGAGC was 1.01. The value for GCGAGCGAAC was 1.08.

In the case of TTTCGGAGCA, the switch fluorescence ratio amounted to 1.7. Consider GTTGAACTTA, for which the switch fluorescence ratio was 1. The figure for ATAGTGGGAA is 1.02; for TACAATTAAG it is 1.01.

GATTGGCCGC: the switch fluorescence ratio was 1.13. The figure for AATCCGAACA is 1.05; for TTGTGAACTC it is 1.01.

Consider TTTTACAGGC, for which the switch fluorescence ratio turned out to be 0.981. As to AATCCCAAGT, the switch fluorescence ratio was determined as 1. Regarding CTCGACAATT, the switch fluorescence ratio was 1.14. The figure for GCGTCACGGC is 1.02; for GCCGCTACCG it is 1.09; for TAGAGATGCG it is 0.978.

GGAGAGACCG: the switch fluorescence ratio turned out to be 1.03. As to TTTGACCCTG, the switch fluorescence ratio is 0.944. For ATTAAATTA, the switch fluorescence ratio was 0.988. On to AAGAATCCAG, for which the switch fluorescence ratio was found to be 1. The value for ATAAGAGTTA was 1.04; that for GGGTTGCCTG was 1.02; that for GCTATGAATT was 0.957. The value for CTGCGATATT was 1.74; that for GATCCCTCTA was 0.975; that for TAGGCCGCTT was 0.979. The figure for AGTTTCTGCA is 0.978. On to ACGGGATAGC, for which the switch fluorescence ratio turned out to be 1.13. For the sequence CTTATCACTA, the switch fluorescence ratio was found to be 1.01. The value for CCAGTATTGT was 0.991; that for AAGGGGCACG was 0.974; that for GGTGACAGCG was 0.996. On to GGGGTAACTG, for which the switch fluorescence ratio was determined as 0.995. Turning to CTAGGGTGGG, the switch fluorescence ratio came out at 1.02. As for GGCGCTAGGT, the switch fluorescence ratio worked out at 1.

In the case of TATGTATACT, the switch fluorescence ratio stood at 0.959.

On to GGTCTCAAAT, for which the switch fluorescence ratio turned out to be 1.03. The figure for CAACGCCCC is 1.33; for GCTTTCTCCC it is 2.83; for AAGAGGATCT it is 1.01. The figure for ATATGTGATC is 0.956; for TTCGCAAAGT it is 1.04.

For the sequence GCCTGCTCCT, the switch fluorescence ratio turned out to be 0.96. ATATCCTCAG: the switch fluorescence ratio came to 1.04. The value for AGAATGTGTG was 0.988.
